From the supplement of paper PMC11876631
Changes are numbered by the printed parent chain. In names and notes the source's numbering stands. ± gives the standard deviation of the averaged measurements. Laboratory Escherichia coli strains with one amino-acid change in an essential protein, pooled on minimal glucose agar with carbenicillin or gentamicin at twice the control MIC (plus kanamycin and chloramphenicol for the plasmids), 48 h. Fold change of barcode share against drug-free plates; higher = less susceptible. Active = above 20 in both replicates (the paper's putatively resistant). '<' = one read or none on drug, '>' = one read or none on a drug-free plate. Shares are relative, so most strains fall below 1 when a few take over. Listed are strains with at least 15 reads on both drug-free plates, and hits; most hits rest on fewer reference reads. Replicate rank correlation about 0.5. Edits are read from barcodes.

B1: mukB V713W (protein)
chain: MIERGKFRSLTLINWNGFFARTFDLDELVTTLSGGNGAGKSTTMAAFVTALIPDLTLLHFRNTTEAGATSGSRDKGLHGKLKAGVCYSMLDTINSRHQRVVVGVRLQQVAGRDRKVDIKPFAIQGLPMSVQPTQLVTETLNERQARVLPLNELKDKLEAMEGVQFKQFNSITDYHSLMFDLGIIARRLRSASDRSKFYRLIEASLYGGISSAITRSLRDYLLPENSGVRKAFQDMEAALRENRMTLEAIRVTQSDRDLFKHLISEATNYVAADYMRHANERRVHLDKALEFRRELHTSRQQLAAEQYKHVDMARELAEHNGAEGDLEADYQAASDHLNLVQTALRQQEKIERYEADLDELQIRLEEQNEVVAEAIERQQENEARAEAAELEVDELKSQLADYQQALDVQQTRAIQYNQAIAALNRAKELCHLPDLTADCAAEWLETFQAKELEATEKMLSLEQKMSMAQTAHSQFEQAYQLVVAINGPLARNEAWDVARELLREGVDQRHLAEQVQPLRMRLSELEQRLREQQEAERLLADFCKRQGKNFDIDELEALHQELEARIASLSDSVSNAREERMALRQEQEQLQSRIQSLMQRAPVWLAAQNSLNQLSEQCGEEFTSSQDVTEYLQQLLEREREAIVERDEVGARKNAVDEEIERLSQPGGSEDQRLNALAERFGGVLLSEIYDDVSLEDAPYFSALYGPSRHAIWVPDLSQVTEHLEGLTDCPEDLYLIEGDPQSFDDSVFSVDELEKAVVVKIADRQWRYSRFPEVPLFGRAARESRIESLHAEREVLSERFATLSFDVQKTQRLHQAFSRFIGSHLAVAFESDPEAEIRQLNSRRVELERALSNHENDNQQQRIQFEQAKEGVTALNRILPRLNLLADDSLADRVDEIRERLDEAQEAARFVQQFGNQLAKLEPIVSVLQSDPEQFEQLKEDYAYSQQMQRDARQQAFALTEVVQRRAHFSYSDSAEMLSGNSDLNEKLRERLEQAEAERTRAREALRGHAAQLSQYNQVLASLKSSYDTKKELLNDLQRELQDIGVRADSGAEERARIRRDELHAQLSNNRSRRNQLEKALTFCEAEMDNLTRKLRKLERDYFEMREQVVTAKAGWCAVMRMVKDNGVERRLHRRELAYLSADDLRSMSDKALGALRLAVADNEHLRDVLRMSEDPKRPERKIQFFVAVYQHLRERIRQDIIRTDDPVEAIEQMEIELSRLTEELTSREQKLAISSRSVANIIRKTIQREQNRIRMLNQGLQNVSFGQVNSVRLNVNVRETHAMLLDVLSEQHEQHQDLFNSNRLTFSEALAKLYQRLNPQIDMGQRTPQTIGEELLDYRNYLEMEVEVNRGSDGWLRAESGALSTGEAIGTGMSILVMVVQSWEDESRRLRGKDISPCRLLFLDEAARLDARSIATLFELCERLQMQLIIAAPENISPEKGTTYKLVRKVFQNTEHVHVVGLRGFAPQLPETLPGTDEAPSQAS
B2: mukB I712W (protein)
chain: B1 chain with I712W, W713V
B3: mukB I712A (protein)
chain: B1 chain with I712A, W713V
B4: mukB V713Q (protein)
chain: B1 chain with W713Q
B5: asd M140A (protein)
chain: MKNVGFIGWRGMVGSVLMQRMVEERDFDAIRPVFFSTSQLGQAAPSFGGTTGTLQDAFDLEALKALDIIVTCQGGDYTNEIYPKLRESGWQGYWIDAASSLRMKDDAIIILDPVNQDVITDGLNNGIRTFVGGNCTVSLALMSLGGLFANDLVDWVSVATYQAASGGGARHMRELLTQMGHLYGHVADELATPSSAILDIERKVTTLTRSGELPVDNFGVPLAGSLIPWIDKQLDNGQSREEWKGQAETNKILNTSSVIPVDGLCVRVGALRCHSQAFTIKLKKDVSIPTVEELLAAHNPWAKVVPNDREITMRELTPAAVTGTLTTPVGRLRKLNMGPEFLSAFTVGDQLLWGAAEPLRRMLRQLA

Target: Escherichia coli (laboratory strain)
Assay: barcode share on antibiotic plates over drug-free plates; higher = less susceptible
Method: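 A pool of E. coli strains, each edited to carry one amino-acid change in an essential protein, was grown for 48 h on minimal glucose agar with or without antibiotic; strain barcodes were sequenced; mean of two replicates.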

[1] = antibiotic: carbenicillin, 2× MIC (3.1 µg/mL)
[2] = antibiotic: gentamicin, 2× MIC (MIC 0.45 µg/mL)

Row | Protein | fold change of barcode share [1] | fold change of barcode share [2]
1 | B1 | 0.386 ± 0.076 | 0.0126 ± 0.0087
2 | B2 | 0.285 ± 0.077 | 0.00693 ± 0.0054
3 | B3 | 0.319 ± 0.057 | 0.00635 ± 0.00043
4 | B4 | 0.232 ± 0.013 | 0.0057 ± 0.0045
5 | B5 | 0.362 ± 0.012 | 0.0113 ± 0.0096
